Assay results as given in the supplement of paper PMC7125110.
± gives the standard error. Variants at the floor of the assay are shown more often than the library holds them.

B1: glmS ribozyme (parent)
chain: AUAAAAGCGCCAGAACUACAGAAAUGUAGUUGACGAGGAGGAGGUUUAUCGAAUUUUCGGCGGAUGCCUCCAAA

What was measured:
Settings in all cases: with glucosamine-6-phosphate
glucosamine-6-phosphate [1] = variants of: B1; assay: self-cleavage kobs at 640 uM GlcN6P; higher = faster cleavage; RNA array
In short: (§1)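 Barcoded ribozyme variants were transcribed in situ on sequenced MiSeq chips by E. coli RNA polymerase. At 37 °C, a hybridised Cy3 probe tracked them while glucosamine-6-phosphate (40 μM to 10 mM) in HEPES/KCl/Mg(OAc)2 buffer flowed in and tiles were imaged over ~14 h. Per-tile medians of signals normalised to baseline and to non-cleaving reference variants were fit to one- or two-exponential decays, giving kobs. kcat and KM came from weighted Michaelis–Menten fits across concentrations.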

glucosamine-6-phosphate [2] = variants of: B1; assay: self-cleavage kobs at 160 uM GlcN6P; higher = faster cleavage; RNA array
In short: as §1

glucosamine-6-phosphate [3] = variants of: B1; assay: self-cleavage kobs at 2500 uM GlcN6P; higher = faster cleavage; RNA array
In short: as §1

glucosamine-6-phosphate [4] = variants of: B1; assay: self-cleavage kobs at 10000 uM GlcN6P; higher = faster cleavage; RNA array
In short: as §1

Variant	self-cleavage kobs at 640 uM GlcN6P (glucosamine-6-phosphate [1]) [s⁻¹]	self-cleavage kobs at 160 uM GlcN6P (glucosamine-6-phosphate [2]) [s⁻¹]	self-cleavage kobs at 2500 uM GlcN6P (glucosamine-6-phosphate [3]) [s⁻¹]	self-cleavage kobs at 10000 uM GlcN6P (glucosamine-6-phosphate [4]) [s⁻¹]
AUAAAAGCGGCAGAACUACAGAAAUGUAGUUGACGAGGCGGAGGUUUAUCGAAUUUUCGGCGGAUGCGUCCAAA	< 1e-05	< 1e-05	< 1e-05	–
AUAAAAGCGACAGAACUACAGAAAUGUAUUUGACGAGGAGGAGGUUUAUCGAAUUUUCGGCGGAUGCCUCCAAA	< 1e-05	–	< 1e-05	< 1e-05
AUAAAAGCGACAGAACUACAGAAAUGUAGUUGACGAGGAGGAGGUUUAUCGAAUUUUCGUCUGAUGCCUCCAAA	< 1e-05	–	< 1e-05	–
AUAAAAGCGGCAGCACUACAGAAAUGUAGUUGACGAGGAGGGGGUUUAUCGAAUUUUCGGCGGGUGCCUCCAAA	< 1e-05	–	< 1e-05	–
AUAAAAGCGACAGAACUACAGAAAUGUAGCUGACGAGGAGGAGGUUAAUCGAAUUUUCGCCGGAUGCCUCCAAA	< 1e-05	–	< 1e-05	–
AUAAAAGCGGCAGAUCUACAGAAAUGUAGUUGACGAGGAGGAGGUUUAUCGAAUUAUCGGCGGAUGCCUGCAAA	< 1e-05	–	–	–
AUAAAAGCGACAGAACUACAGAAAUGUAUUUGACGAGGAGGAGGUUUAUCGAAUUUUCGGCGGGUGCCUCCAAA	< 1e-05	< 1e-05	–	–
AUAAAAGCGGCAGAGCUACAGAAAUGUAGUUGACGAGGUGGAGGUUUAUCGAAUUUUCGCCGGAUGCAUCCAAA	< 1e-05	–	< 1e-05	–
AUAAAAGCGACAGAACUACAGAAAUGUAGUCGACGAGGAGGAGGCUGAUCGAAUUUCCGGCGGAUGCCUCCAAA	< 1e-05	–	< 1e-05	–
AUAAAAGCGGCAGAACUACAGAAAUGUAGUUGACGAGGAGGAGGUUUAUCGAUUUUACGGCGGAUGCCUCCAAA	< 1e-05	–	–	–
AUAAAAGCGGAAGAACUACAGAAAUGUAGUUGAGGAGGAGGAGGUUUAUCGAAUUUUCGGCGGAUGCCUCCAAA	< 1e-05	–	< 1e-05	–
AUAAAAGCGGCAGAACUACAGAAAUGUAGUUGAGGAGGAGGAGGUUUAUCGAAUUUUCGGCGGAUGCCUCCAAA	< 1e-05	< 1e-05	< 1e-05	< 1e-05
AUAAAAGCGGCAGCACUACAGAAAUGUAGUUGACGAGGAGGAGGUCUAUCGAAUUUUCGGCGGAUGCCUCCAAA	< 1e-05	–	< 1e-05	–
AUAAAAGCGACAGAACUACAGAAAUGUAGUUUACGAGGAGGAGGUUUAUCGAAUUUUCGGCGGAUGCCUCCAAA	< 1e-05	< 1e-05	< 1e-05	–
AUAAAAGCGACAGAACUACAGAAAUGUAGUUGACGAGUAGGAGGUUUAUCGAAUUUUCGGCGGAUGACUCCAAA	< 1e-05	–	–	–
AUAAAAGCGACAGAACUACAGAAAUGUAGUUGACGAGGAGGAGGUUUAUCGAAUUGUCGGCGGAUGCCUCCAAA	< 1e-05	–	–	–
AUAAAAGCGACAGAACUACAGAAAUGUAGUUGACGAGGAGGAGGUUUAUCGAAUUUUCGGCCUAUGCCUCCAAA	< 1e-05	–	< 1e-05	–
AUAAAAGCGGCAGAACUACAGAAAUGUAGUUGACGAGGAGGUGGUUUAUCGAAUUUUCGGCGGAUGCCUCUAAA	< 1e-05	–	–	–

Variant	self-cleavage kobs at 640 uM GlcN6P (glucosamine-6-phosphate [1]) [s⁻¹]	self-cleavage kobs at 160 uM GlcN6P (glucosamine-6-phosphate [2]) [s⁻¹]	self-cleavage kobs at 2500 uM GlcN6P (glucosamine-6-phosphate [3]) [s⁻¹]	self-cleavage kobs at 10000 uM GlcN6P (glucosamine-6-phosphate [4]) [s⁻¹]
AUAAAAGCGACAGAACUACAGAAAUGUAGUGGACGAGGAGGAGGUUUAUCGAAUUUUCGGCGGAUGCCUCCAAA	< 1e-05	–	< 1e-05	–
AUAAAAGCGGCAGAUCUACAGAAAUGUAGUUGACGAGGAGGACGUUUAUCGAAUUUUCGGCGGAUGCCUCCAAA	< 1e-05	< 1e-05	–	–
AUAAAAGCGACAGAACUACAGAAAUGUAGUUAACGAGGAGGAGGUGUAUCGAAUUUUCGGCGGAUGCCUCCAAA	< 1e-05	–	< 1e-05	–
AUAAAAGCGGGAGAACUACAGAAAUGUAGUUGACGAGGCGGAGCUUUAUCGAAUCUUCGGCGGAUGCCUCCAAA	< 1e-05	–	–	–
AUAAAAGCGGCAGAACUACAGAAAUGUAGUUGACGAGGCGGAGGUUUAUCGAAUUUUCGGCGGGUGCCUCCAAA	< 1e-05	< 1e-05	< 1e-05	–
AUAAAAGCGACAUAACUACAGAAAUGUAGUUGACGAGGAGGAGGUUUAUCGCAUUUUCGGCGGAUGCCUCCAAA	< 1e-05	–	< 1e-05	–
AUAAAAGCGACAGAACUACAGAAAUGUAGUUGACGAGGACGAGGUUUAUCGAAUUUUCGGCCGAUGCCUCCAAA	< 1e-05	–	< 1e-05	–
AUAAAAGCGACAGAACUACAGAAAUGUAGUUGACGAGGAGGAGGUUUAUCGAAUUAUCGGCGGAUGCCUUCAAA	6.36e-05 ± 2.6e-05	–	0.000147 ± 6.5e-05	–
AUAAAAGCGGCAGACCUACAGAAAUGUAGUUGACUAGGAGGAGGUUUAUCGAAUUUUCGGCGGAUGCCUCCAAA	< 1e-05	–	< 1e-05	–
AUAAAAGCGGCAGAUCUACAGAAAUGUAGUUGACGAGGAGGAGGUUUAUCGAAUUUUCUGCGGAUGCCUCCAAA	< 1e-05	< 1e-05	–	–
AUAAAAGCGGCAGAACUACAGAAAUGUAGUUGACGAGGUGGAGGCUUAUCGAAUUUUCGGCGGAUGCCUCCAAA	< 1e-05	–	–	–
AUAAAAGCGACAGAACUACAGAAAUGUAGGUGACGAGGAGGAGGUUUAUCGAAUUUUCGGCGGAUCCCUCCAAA	< 1e-05	< 1e-05	< 1e-05	< 1e-05
AUAAAAGCGACAGAACUACAGAAAUGUAGUUGACGAGGAGGAGUUUUAUCGAAUUUUCGGCGGAGGCCUCCAAA	< 1e-05	–	< 1e-05	–
AUAAAAGCGACAGAACUACAGAAAUGUAUUUGACGAGGAGGAGGUUUAGCGAAUUGUAGGCGGAUGUCUCCAAA	< 1e-05	–	–	–
AUAAAAGCGACAGAACUACAGAAAUGUAGUAGACGAGGAGGAGGUUUAUCGAAUUCUCGGCGGAUGCCUCCAAA	< 1e-05	–	< 1e-05	< 1e-05
AUAAAAGCGGCAGAACUACAGAAAUGUAGUUGACGAGGAGGAGGUUUCUCGAAUUUUCGGCGGAUUCCUCCAAA	< 1e-05	< 1e-05	< 1e-05	–
AUAAAAGCGGCAGAUCUACAGAAAUGUAGUUGACGACGAGGAGGUUUAUCGAAUUUUCGGCGGAUGCCUCCAAA	< 1e-05	–	–	–
AUAAAAGCGGCAGAACUACAGAAAUGUAGUUGACGAGGAGGAGGUUUAUCGAAUUUUCGGCGGUUGCCUCCAAA	< 1e-05	< 1e-05	< 1e-05	–
